These results are taken from the supplement of paper PMC10300432.

For assay [1], the target named is SARS-CoV-2 Omicron BA.1 spike pseudovirus. The experiment in a line: pseudovirus neutralization IC50; higher = weaker neutralization. How it is done:
(§1)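 Single-round luciferase reporter pseudovirus mixed with antibody dilutions and put on HT1080-ACE2 clone 14 cells for 48 h; signal relative to no-antibody wells, four-parameter fit.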

In assay [2] the target is SARS-CoV-2 Omicron BA.4/5 spike pseudovirus. Described as above. How it is done:
as §1

Assay [3] has as its target SARS-CoV-2 Wuhan-Hu-1 spike pseudovirus. The assay is described as above. How it is done:
as §1

Assay [4] deals with SARS-CoV-2 Wuhan-Hu-1 spike receptor-binding domain. As to the kind of experiment: ELISA binding EC50; higher = weaker binding; ELISA of recombinant human antibody on coated antigen, from 10 µg/ml in fourfold dilutions; four-parameter fit.

Recombinant human monoclonal antibodies (heavy:light variable regions). ELISA EC50 on the named antigen, from 10 µg/ml down; IC50 against spike pseudovirus on HT1080-ACE2 cells, 48 h; lower = stronger. Calls: IC50 above 1,000 ng/ml = non-neutralizing; EC50 above 1,000 ng/ml = non-binder.

B1: C5330 (protein)
chain 1: EVQLVQSGAEVKKPGESLRISCEGSGDILTSYWITWVRQMPGKGLEWMGRIDPSDSYTEYSPSFQGHITISADQSTSTAYLQWSSLKASDTAMYYCAIYVGGFYDGGTWGQGTMVTVSS
chain 2: DIQMTQSPSTLSASVGDRVTITCRASQSISSWLAWYQQKPGKAPKPLIYKASSLRSGVPSRFSGSGSGTEFTLTISSLQPDDFATYYCQQYNSYWTFGQGTKVEIK
B1: the “pseudovirus neutralization IC50” value in assay [1], in assay [2] and in assay [3] was greater than 1 µg/mL throughout. Moreover, the “ELISA binding EC50” value in assay [4] was 0.00529 µg/mL.

B2: C5283 (protein)
chain 1: EVQLVESGGGLVQPGGSLRLSCAASGFTFTNYDMYWVRQVRGKGLEWVSVIGTGGDTYYSDSVKGRFSVSRDNAKNSLYLQMNALRAGDTAVYYCARENRPPGPSYGVYGMDVWGQGTTVTVSS
chain 2: DIQMTQSPSSLSASVGDRVTITCRASQSISTYLNWYQQKPGKAPKLLIYASSTLQSGVPSRFSGSGSGTDFTLTISSLRPEDFATYYCQQNYVTPSLTFGGGTKVEIK
With B2, the “pseudovirus neutralization IC50” value in assay [1] is greater than 1 µg/mL; in assay [2] it was greater than 1 µg/mL; in assay [3] it was 0.922 µg/mL. For the same molecule, in assay [4], the “ELISA binding EC50” value worked out at 0.00629 µg/mL.

B3: C5050 (protein)
chain 1: QVQLQESGPGLVKPSETLSLTCTVSGGSISGYYWSWIRQPPGKGLEWIGYIYYSGSTNYNPSLKSRVTISIDTSKNQFSLKLSSVTAADTAVYYCVRDDGGNGFPYYGMDVWGQGTTVTVSS
chain 2: EIVLTQSPATLSLSPGERATLSCRASQSVRSYLAWYQQKPGQAPRLLIYDASNRATGIAARFSGSGSGTDFTLTISSLEPEDFAVYYCQQRSNWPPEITFGPGTKVDIK
With B3, the “pseudovirus neutralization IC50” value was greater than 1 µg/mL in assay [1], greater than 1 µg/mL in assay [2] and 0.857 µg/mL in assay [3]. The “ELISA binding EC50” value in assay [4] is 0.00829 µg/mL.

B4: C5279 (protein)
chain 1: EVQLVQSGAEVKKPGESLRISCKGSGYSFISYWITWVRQMPGKGLEWMGRIDSSDSYTNYSPSFQGHVTMSVDRSTNTAFLQWSSLKASDTAIYYCARRMMLKSVGLELDAFDIWGQGTMVTVSS
chain 2: DIQMTQSPSSLSASVGDRVTITCQASQNIGNHLNWYQQKPGKAPTLLIYDTSNLETGVPSRFSGSGSGTDFTLTISSLQPDDIATYYCQQYDSRGYSFGPGTKLEIK
Consider B4, for which the “pseudovirus neutralization IC50” value is greater than 1 µg/mL in assay [1], greater than 1 µg/mL in assay [2] and 0.00205 µg/mL in assay [3]. Besides, the “ELISA binding EC50” value in assay [4] is 0.00381 µg/mL.

B5: C5327 (protein)
chain 1: QVQLVQSGAEVKKPGSSVKVSCKASGGTFRNYAISWVRQAPGEGLEWMGRIILTFGIANYAQNFQGRVTITADESTSTVYMELSSLRSDDTAIYYCAREGVSYLGSGTYPYFDYWGQGTLVTVSS
chain 2: QSALTQPRSVSGSPGQSVTISCTGTSSDVGGYDYVSWYQQHPGKAPKLMIYDVTRRPSGVPDRFSGSKSGNTASLTISGLQAEDEGDYYCCSYTGTYTYNYVFGTGTKVTVL
Turning to B5, the “pseudovirus neutralization IC50” value was determined as 0.0212 µg/mL in assay [1], 0.00395 µg/mL in assay [2] and 0.00156 µg/mL in assay [3]. Moreover, in assay [4], the “ELISA binding EC50” value is 0.00543 µg/mL.

B6: C5282 (protein)
chain 1: QVQLVQSGAEVKKPGSSVKVSCKASGGTFSSYTISWVRQAPGQGLEWMGRIIPALGIANYAQKFQGRVTITADKSTSTAYMELSSLRSEDTAVFYCARDRGMRDWYFDLWGRGTLVTVSS
chain 2: QSVLTQPPSVSGAPGQRVTISCTGSNSNIGAGYDVHWYQQLPGTAPKLLIYVNSNRPSGVPDRFSASKSDTSASLAITGLQAEDEADYYCQSYDSSLSDVVFGGGTKLTVL
B6: the results for the “pseudovirus neutralization IC50” value in assay [1], in assay [2] and in assay [3] were 0.11 µg/mL, greater than 1 µg/mL and 0.196 µg/mL, respectively. The “ELISA binding EC50” value in assay [4] came to 0.00547 µg/mL.

B7: C5284 (protein)
chain 1: EVQLVQSGAEVKKPGESLKISCKGSGYTFSYYWIGWVRQMPGKGLEWMGIIYPGDSDTKYSPSFQGQVTISADKSISTAYLQWSSLKASDTAMYYCARLVDIVGVTNLQGWFDPWGQGTLVTVSS
chain 2: SYELTQPPSVSVAPGQTARITCGGNNIGSKSVHWYQQRPGQAPVLVLYDGSDRPSGIPERFSGSNSENTATLTISRVEAGDEADYYCQVWDSSSDHQVFGGGTKVTVL
On to B7, for which the “pseudovirus neutralization IC50” value in assay [1] turned out to be 0.195 µg/mL; in assay [2], 0.322 µg/mL; in assay [3], 0.138 µg/mL. In addition, in assay [4], the “ELISA binding EC50” value is 0.00769 µg/mL.

B8: C5281 (protein)
chain 1: QLQLQESGPGLLKPSETLSLTCTVSGGSISSSSYYWGWIRQPPGKGLEWIASIFYSGSPYYNPSLQSRVTISVDTSKNQFSLRLSSVTAADTAVYYCARLAVIGGRWLQLSNFQHWGQGTLVTVSS
chain 2: QSVLTQPPSVSGAPGQRVTISCTGSSSNIGAGYDVHWYQQLPGTAPKLLIYDNSNRPSGVPDRFSASKSGTSASLAITGLQAEDEADYYCQSYDSSLSGFYVFGTGTTVTVL
Turning to B8, the results for the “pseudovirus neutralization IC50” value in assay [1], in assay [2] and in assay [3] were greater than 1 µg/mL, greater than 1 µg/mL and 0.39 µg/mL, respectively. The “ELISA binding EC50” value in assay [4] was 0.0607 µg/mL.
